Patent US20220280587A1, “MEDICAL GELS CONTAINING A QUATERNARY AMMONIUM COMPOUND, PHENOXYETHANOL, ALOE VERA JUICE, AND NATURAL SPORICIDAL MOISTURIZERS” (priority 2021, published 2022)
Where two headings read alike, the source gives them in different places.

From the text: Various types of plant extracts can be included in the medical gel. As a non-limiting example, the plant extract can be aloe vera juice. […] Aloe vera juice is also bactericidal of Pseudomonas aeruginosa. Aloe vera juice can be combined with benzalkonium chloride in the medical gel. Aloe vera juice can replace a portion of the benzalkonium chloride in the medical product. […] But the concentration of benzalkonium chloride can be lowered to 0.10% when aloe vera juice is present at 10%. Advantageously, the lower concentration of benzalkonium chloride at 0.10% is non-irritating. Aloe vera juice is also a hydrating agent.

In the case of benzalkonium chloride, the Skin irritation (concentration of 0.10%) is reported as “non-irritating” and the Skin irritation (concentration of 0.13%) is reported as “causes skin irritation”.
